The structures appear in SMILES notation. In all, about 310,000 compounds went through this assay and about 14,000 (4.5%) showed an effect of 50% or more. Effects have a minus sign here. The list shows a part of the results.
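Note: peak tail current of the secondary pulse compared with the same well before compound.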

The target in this assay is human ether-à-go-go-related gene (hERG) potassium channel (human, UniProt Q12809). Briefly: primary screen, population patch clamp on CHO cells stably expressing hERG.
human ether-à-go-go-related gene (hERG) potassium channel, sequence (Q12809 whole entry, looked up): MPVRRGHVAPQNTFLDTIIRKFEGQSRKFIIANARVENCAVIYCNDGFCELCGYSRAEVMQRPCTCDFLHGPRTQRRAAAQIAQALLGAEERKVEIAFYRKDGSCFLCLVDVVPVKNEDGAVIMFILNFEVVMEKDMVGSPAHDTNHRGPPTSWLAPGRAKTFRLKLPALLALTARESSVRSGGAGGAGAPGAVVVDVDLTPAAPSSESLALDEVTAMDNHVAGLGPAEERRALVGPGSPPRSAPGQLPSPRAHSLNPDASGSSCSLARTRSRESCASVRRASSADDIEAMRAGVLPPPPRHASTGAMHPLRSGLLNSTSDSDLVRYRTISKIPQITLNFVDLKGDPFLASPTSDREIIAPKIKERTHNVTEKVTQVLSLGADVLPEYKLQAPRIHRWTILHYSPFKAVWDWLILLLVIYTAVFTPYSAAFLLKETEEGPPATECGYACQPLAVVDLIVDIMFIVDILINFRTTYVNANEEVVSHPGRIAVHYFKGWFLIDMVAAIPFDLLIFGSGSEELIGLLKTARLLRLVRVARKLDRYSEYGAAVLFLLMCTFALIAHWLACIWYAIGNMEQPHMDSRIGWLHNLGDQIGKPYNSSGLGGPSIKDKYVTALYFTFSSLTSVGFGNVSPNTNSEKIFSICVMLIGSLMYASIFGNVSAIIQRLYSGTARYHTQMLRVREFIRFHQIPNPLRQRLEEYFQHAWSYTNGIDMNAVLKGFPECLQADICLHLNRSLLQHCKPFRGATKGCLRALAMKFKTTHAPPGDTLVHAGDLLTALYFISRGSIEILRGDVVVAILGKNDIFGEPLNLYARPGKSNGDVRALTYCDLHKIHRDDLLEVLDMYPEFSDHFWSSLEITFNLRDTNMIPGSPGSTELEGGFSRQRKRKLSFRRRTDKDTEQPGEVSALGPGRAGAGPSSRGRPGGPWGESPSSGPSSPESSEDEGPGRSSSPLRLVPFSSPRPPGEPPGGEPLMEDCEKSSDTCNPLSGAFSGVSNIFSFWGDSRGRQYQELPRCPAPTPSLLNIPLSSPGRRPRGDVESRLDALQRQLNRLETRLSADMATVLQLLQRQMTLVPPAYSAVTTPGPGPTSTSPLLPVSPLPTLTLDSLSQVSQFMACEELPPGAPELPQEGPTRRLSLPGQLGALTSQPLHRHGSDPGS
Regarding `O=C(COC(=O)c1ccc(S(=O)(=O)N2CCCC2)cc1)NCc1ccc(F)cc1`, the “hERG current change (%, negative = inhibition) at 10uM” value is on record as 0.966%.

In the case of `COc1ccc(/C=N/NC(=O)c2ccncc2)cc1[N+](=O)[O-]`, the “hERG current change (%, negative = inhibition) at 10uM” value was -8.42%.

With `CC(Cc1ccc(Cl)cc1)N1CCC(n2nccc2NC(=O)C2CCCC2)CC1` (stereo not shown), the “hERG current change (%, negative = inhibition) at 10uM” value was -76.3%.

Consider `COc1ccc(NC(=O)C2=CC(c3ccco3)=NS(=O)(=O)N2C)cc1`, for which the “hERG current change (%, negative = inhibition) at 10uM” value is 0.0772%.

For `Cc1cc(=O)oc2cc(OCC(=O)N3CCC(O)CC3)c(Cl)cc12`, the “hERG current change (%, negative = inhibition) at 10uM” value turned out to be 1.9%.

In the case of `COc1ccc(C(=O)Nc2ccc(Cl)cc2C(=O)N2CCCC(C)C2)cc1OC` (stereo not shown), the “hERG current change (%, negative = inhibition) at 10uM” value is listed as -21.1%.

In the case of `CN1CCN(C(=S)c2cn(Cc3cccc(F)c3)c3ccccc23)CC1`, the “hERG current change (%, negative = inhibition) at 10uM” value came out at 5.12%.

With `C/C(=N\NC(=O)c1cc(C(C)C)[nH]n1)c1ccco1`, the “hERG current change (%, negative = inhibition) at 10uM” value is recorded as -2.42%.

As for `CC(=O)c1ccc(OCC(=O)OCC(=O)Nc2sccc2C(N)=O)cc1`, the “hERG current change (%, negative = inhibition) at 10uM” value was determined as 3.83%.

On to `COc1ccc2c(c1)OC[C@H]1[C@H]2N2C(=O)CN(CCc3c[nH]c4ccccc34)C(=O)[C@@]2(C)[C@H]1c1ccccc1`, for which the “hERG current change (%, negative = inhibition) at 10uM” value was 15.8%.

In the case of `CC(=O)OCCCNc1cc(Sc2ccc(C)cc2)c2nonc2c1[N+](=O)[O-]`, the “hERG current change (%, negative = inhibition) at 10uM” value was 7.29%.

With `Cc1ccc(C(=O)N2CCNC(=O)C2CC(=O)Nc2ccc(F)cc2)cc1C` (stereo not shown), the “hERG current change (%, negative = inhibition) at 10uM” value worked out at 11.4%.

For the molecule `CCc1ccc(C(=O)OCC(=O)NCC(F)(F)F)cc1`, the “hERG current change (%, negative = inhibition) at 10uM” value is 28%.

With `COc1ccccc1Nc1nc(NCCCCO)nc(N2CCCC2)n1`, the “hERG current change (%, negative = inhibition) at 10uM” value was -42.5%.

`CCC(=O)Nc1nnc(/C=C/c2ccc(OC)cc2)s1`: the “hERG current change (%, negative = inhibition) at 10uM” value was determined as 11%.

Regarding `Cc1ccc(C(=O)Nc2cccc3ccccc23)o1`, the “hERG current change (%, negative = inhibition) at 10uM” value is on record as 4.82%.

`CC(=O)Nc1ccc(S(=O)(=O)Nc2nc3ccccc3nc2Nc2ccc(N)cc2)cc1`: the “hERG current change (%, negative = inhibition) at 10uM” value is on record as 22.2%.

`CC(=O)Nc1ccc(SCC(=O)c2cc(C)ccc2C)cc1`: the “hERG current change (%, negative = inhibition) at 10uM” value is on record as -4.11%.

`Cc1c(Cl)c(C(=O)Nc2nc3ccccc3n2CCN2CCCCC2)nn1C`: the “hERG current change (%, negative = inhibition) at 10uM” value is -68.1%.

For `Cc1ccc(S(=O)(=O)N2CCCN(C(C)c3nc4ccccc4c(=O)[nH]3)CC2)cc1` (stereo not shown), the “hERG current change (%, negative = inhibition) at 10uM” value is -25.6%.

Turning to `O=C(Nc1ccccc1Cl)/C(Cl)=C(\Cl)S(=O)c1ccccc1` (stereo not shown), the “hERG current change (%, negative = inhibition) at 10uM” value is -6.94%.

Turning to `CS(=O)(=O)N(CC(=O)NCc1ccco1)Cc1ccc(Cl)cc1`, the “hERG current change (%, negative = inhibition) at 10uM” value is -18.4%.

For `Cc1cc(=O)[nH]c(-c2cccs2)n1`, the “hERG current change (%, negative = inhibition) at 10uM” value is given as 8.78%.

With `CCCCOc1ccc(N(CC(=O)NCc2ccco2)C(=O)CCC(=O)Nc2nccs2)cc1`, the “hERG current change (%, negative = inhibition) at 10uM” value was found to be 17%.

`CCn1cc(CN(C)S(=O)(=O)c2cccc([N+](=O)[O-])c2)cn1`: the “hERG current change (%, negative = inhibition) at 10uM” value was -28.8%.

Regarding `COc1ccc(CNC(=O)C/C(C)=N/NC(=O)c2cc(OC)cc(OC)c2)cc1`, the “hERG current change (%, negative = inhibition) at 10uM” value is recorded as 5.35%.

Take `CCNc1cc(O)ccc1C`: the “hERG current change (%, negative = inhibition) at 10uM” value worked out at 4.55%.

For the molecule `O=C(N/N=C/c1ccccc1)c1[nH]c2ccc(Br)cc2c1-c1ccccc1`, the “hERG current change (%, negative = inhibition) at 10uM” value is 25.8%.

For `C=C(C)c1cccc(C(C)(C)NC(=O)Nc2nncs2)c1`, the “hERG current change (%, negative = inhibition) at 10uM” value is reported as -2.12%.

Take `O=C(CC1SC(=Nc2cccc3ccccc23)N(Cc2ccccn2)C1=O)Nc1ccccc1Br` (stereo not shown): the “hERG current change (%, negative = inhibition) at 10uM” value came to 22.3%.

Regarding `COc1ccc(NC(=O)N/C=C/c2ccccc2)cc1`, the “hERG current change (%, negative = inhibition) at 10uM” value was determined as 35.6%.

For `CCn1c(-c2cc3c(C(F)(F)F)nn(C)c3s2)n[nH]c1=S`, the “hERG current change (%, negative = inhibition) at 10uM” value is 15.9%.

As for `CNC(=S)N/N=C/c1ccco1`, the “hERG current change (%, negative = inhibition) at 10uM” value is 7.77%.

Regarding `COc1cccc(CC(=O)OCC(=O)N(C)CC(=O)Nc2ccccc2Cl)c1`, the “hERG current change (%, negative = inhibition) at 10uM” value stood at 13.3%.

As for `COc1ccc(C2C(C(=O)NCc3ccccn3)c3ccccc3C(=O)N2C)cc1OC` (stereo not shown), the “hERG current change (%, negative = inhibition) at 10uM” value is listed as 17.9%.

In the case of `Cc1cc(C(=O)CSc2nncs2)c(C)n1Cc1ccco1`, the “hERG current change (%, negative = inhibition) at 10uM” value is recorded as -11.8%.

As for `CCCc1cc(=O)n2[nH]c(C)c(-c3ccccc3)c2n1`, the “hERG current change (%, negative = inhibition) at 10uM” value is reported as -8.47%.

As to `CCCCOc1ccc(C2OC34CCCCC3C(C#N)(C#N)C2(C#N)C(=N)O4)cc1` (stereo not shown), the “hERG current change (%, negative = inhibition) at 10uM” value is recorded as 6.36%.

For `CC(=O)c1cccc(NC(=O)c2csc(-n3nc(C)cc3C(F)(F)F)n2)c1`, the “hERG current change (%, negative = inhibition) at 10uM” value is on record as 4.79%.

In the case of `Cn1cccc1Cc1nnc(SCC(=O)Nc2ccccc2F)n1-c1ccc(F)cc1`, the “hERG current change (%, negative = inhibition) at 10uM” value is listed as -17.4%.

With `COc1ccccc1Oc1ccc(N/C=C/C(=O)c2ccco2)cc1`, the “hERG current change (%, negative = inhibition) at 10uM” value stood at 43.9%.

Turning to `Cc1ccc(NC(=O)COC(=O)COc2ccc(Cl)cc2)c([N+](=O)[O-])c1`, the “hERG current change (%, negative = inhibition) at 10uM” value is on record as 9.17%.

For the molecule `COc1cc2c(cc1OC)CN(C(=O)CSc1ccc(F)cc1)CC2`, the “hERG current change (%, negative = inhibition) at 10uM” value came to 11.2%.

Values taken from PMC4336329 (PLoS ONE, 2015).
